In PubChem BioAssay AID504332 (National Center for Advancing Translational Sciences (NCATS), 2011):
In all, about 350,000 compounds went through this assay and about 31,000 (8.9%) were called active. This list was built around the results that the source calls inconclusive (neither active nor inactive); the mix of calls is not that of the screen. The call rests on the fitted dose curve; in most records, active means well fitted inhibition curve with a large enough effect; inconclusive means small, poorly fitted or top-dose-only effect; inactive means no such curve, though single readings can be large or run the other way. Potencies of inconclusive entries are doubtful fits and often do not repeat.

These compounds were tested against Histone-lysine N-methyltransferase EHMT2 (Homo sapiens) (UniProt Q96KQ7) (assay: qHTS Assay for Inhibitors of Histone Lysine Methyltransferase G9a). Conditions: G9a H3K9 monomethylation, AlphaScreen, 2 h; activity, negative = inhibition: at 59 µM (top of the series) unless noted.
Outline: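 Signal arises when biotinylated H3K9 peptide, once monomethylated, bridges streptavidin donor and antibody-captured acceptor beads. Enzyme at 20 nM was preincubated 15 min with test compounds; peptide 500 nM and SAM 20 uM then reacted for 2 h.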
Further: nearly all actives have a fitted effect of over 75% in size.
On the % scale 0 is the no-effect control and ±100 the full control effect; potency means the concentration at half of the fitted maximal effect; tags describe the fitted curve by direction and shape.

Sequence of UniProt Q96KQ7 (Q96KQ7 whole entry, looked up): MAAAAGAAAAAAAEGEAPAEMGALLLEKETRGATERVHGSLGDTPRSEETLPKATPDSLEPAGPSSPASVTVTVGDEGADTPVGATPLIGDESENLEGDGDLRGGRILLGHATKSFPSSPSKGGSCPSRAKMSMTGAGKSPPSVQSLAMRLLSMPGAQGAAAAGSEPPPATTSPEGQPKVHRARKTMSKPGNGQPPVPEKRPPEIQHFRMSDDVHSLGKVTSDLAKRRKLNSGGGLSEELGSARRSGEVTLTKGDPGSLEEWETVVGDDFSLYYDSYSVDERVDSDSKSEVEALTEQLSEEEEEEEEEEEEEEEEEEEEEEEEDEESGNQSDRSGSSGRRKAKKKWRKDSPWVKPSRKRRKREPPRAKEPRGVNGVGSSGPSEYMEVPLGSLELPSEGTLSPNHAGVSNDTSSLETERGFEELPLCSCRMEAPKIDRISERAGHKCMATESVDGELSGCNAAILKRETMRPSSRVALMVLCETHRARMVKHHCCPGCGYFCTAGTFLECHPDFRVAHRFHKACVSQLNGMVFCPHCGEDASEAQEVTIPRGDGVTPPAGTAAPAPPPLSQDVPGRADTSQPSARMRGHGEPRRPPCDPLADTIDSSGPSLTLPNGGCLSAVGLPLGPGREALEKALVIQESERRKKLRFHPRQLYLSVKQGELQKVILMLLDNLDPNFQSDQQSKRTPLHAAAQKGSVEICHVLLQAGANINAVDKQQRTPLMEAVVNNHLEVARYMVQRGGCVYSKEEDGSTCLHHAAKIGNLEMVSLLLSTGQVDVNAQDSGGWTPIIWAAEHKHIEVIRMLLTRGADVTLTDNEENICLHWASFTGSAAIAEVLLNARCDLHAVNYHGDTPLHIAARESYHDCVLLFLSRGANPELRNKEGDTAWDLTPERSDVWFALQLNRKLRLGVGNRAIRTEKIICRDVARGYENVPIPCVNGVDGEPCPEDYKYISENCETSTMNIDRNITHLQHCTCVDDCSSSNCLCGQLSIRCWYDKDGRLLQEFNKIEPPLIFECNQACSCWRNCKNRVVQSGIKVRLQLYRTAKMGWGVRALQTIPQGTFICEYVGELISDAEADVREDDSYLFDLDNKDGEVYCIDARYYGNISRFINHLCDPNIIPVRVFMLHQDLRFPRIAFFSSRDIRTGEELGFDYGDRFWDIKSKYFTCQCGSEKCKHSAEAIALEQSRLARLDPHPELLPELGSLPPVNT

Row | SMILES | Potency | activity, negative = inhibition
1 | CCCn1c(SCC(=O)Nc2cccc(S(=O)(=O)N(C)C)c2)nc2ccccc2c1=O | inconclusive: 89.1 µM [inhibitor, partial curve, poor fit] | –
2 | O=C(C[n+]1cccc(C(=O)Nc2ccccc2)c1)c1ccc([N+](=O)[O-])cc1 | inconclusive: 39.8 µM [inhibitor, partial curve, poor fit] | –
3 | CCCCC(=O)NC(Nc1nc(C2CC2)cs1)(C(=O)OCC)C(F)(F)F (configuration not stated) | – | inconclusive: -79.7% [inhibitor]
4 | COc1ccccc1NC(=O)c1ccccc1NC(=O)c1ccccc1C(=O)O | inconclusive: 89.1 µM [inhibitor, single point] | –
5 | O=S(=O)(NCCc1csc2nc(-c3ccc(Cl)cc3)nn12)c1ccc2c(c1)OCCO2 | – | inactive: -5.77%
6 | CCCn1c(SCC(=O)Nc2ccc3c(c2)OCCO3)nnc1-c1ccco1 | inconclusive: 44.7 µM [inhibitor, partial curve, poor fit] | –
7 | CCCn1c2ccccc2c2cnn(CC(=O)NCCCN(Cc3ccccc3)C(C)C)c(=O)c21 | – | inactive: -1.76%
8 | CCOc1ccc(S(=O)(=O)N2CCN(C(=S)NCC3CCCO3)CC2)cc1 (configuration not stated) | – | inactive: -5.51% [at 102 µM]
9 | C=CCn1c(C)cc(C(=O)COC(=O)/C=C/c2c(C)nn(C3CCS(=O)(=O)C3)c2Cl)c1C (configuration not stated) | inconclusive: 35.5 µM [inhibitor, partial curve] | –
10 | C=CCn1c(-c2cccn(Cc3cccc(Cl)c3)c2=O)n[nH]c1=S | active: 11.2 µM | –
11 | CN(C)S(=O)(=O)c1cccc(C(=O)N=C2N=C3C=CC(Cl)=CN3Cc3ccccc32)c1 | – | inactive: -16.2%
12 | COc1cc(/C=C/C(=O)OCC(=O)N2CCC(Cc3ccccc3)CC2)ccc1O | – | inactive: -49%
13 | Cc1ccc(C(=O)N2CCN(C(=O)c3ccc(C)cc3)C2)cc1 | – | inactive: -0.735% [at 102 µM]
14 | CCC(CC)NC(=O)COC(=O)c1cccc(C)c1O | inconclusive: 28.2 µM [inhibitor, single point] | –
15 | COc1ccc(CSCCc2n[nH]c(=S)n2-c2ccccc2)cc1C | active: 2 µM | –
16 | COc1ccc(Br)cc1CNC(=O)CCC(=O)n1nc(C)c2ccccc21 | inconclusive: 89.1 µM [inhibitor, single point] | –
17 | COc1ccc(-c2nc(=S)n3ccsc3n2)cc1OC | – | inconclusive: -57.5% [inhibitor]
18 | CCC(C)NC(=O)CN1C(=O)c2cccnc2Oc2ccc(C)cc21 (configuration not stated) | – | inactive: -5.28%
19 | COc1ccc(Nc2cc(C(=O)NCCCN(C)C3CCCCC3)c3ccccc3n2)c(OC)c1 | inconclusive: 0.794 µM [inhibitor, full curve, poor fit] | –
20 | COc1ccc2oc(=O)c(-c3nc(-c4ccc(C)c(C)c4)cs3)cc2c1 | – | inactive: 91.4%
21 | CCC(C)NC(=O)CC1Oc2ccc(Cl)cc2NC1=O (configuration not stated) | active: 44.7 µM | –
22 | COc1ccc(C2SCCN2C(=S)Nc2ccc(Cl)cc2)cc1 (configuration not stated) | inconclusive: 20 µM [inhibitor, single point] | –
23 | Cc1cc(C)cc(OCCSc2nc(-c3cccs3)nc3cc(=O)[nH]n23)c1 | – | inactive: 47.3%
24 | O=C(COc1ccc(Cl)cc1)NCc1ccc(F)cc1 | – | inactive: 0.0294% [at 102 µM]

Row | SMILES | Potency | activity, negative = inhibition
25 | CC(=Nc1ccc2c(c1)nc(CO)n2C)C1=C(O)CC(C)(C)CC1=O | inconclusive: 50.1 µM [inhibitor, partial curve] | –
26 | COc1cc([N+](=O)[O-])ccc1-c1ccc(/C=N/NC(=O)OC(C)(C)C)o1 | inconclusive: 100 µM [inhibitor, partial curve, poor fit] | –
27 | CCOc1ccc(S(=O)(=O)N/N=C(\C)c2ccc(OC)cc2OC)cc1 | inconclusive: 15.8 µM [inhibitor, partial curve, poor fit] | –
28 | CCOc1ccc(C(=O)NC(=S)Nc2cccc(S(=O)(=O)NC3=NCCC3)c2)cc1 | inconclusive: 35.5 µM [inhibitor, partial curve] | –
29 | O=C(Oc1cccc(O)c1)C1CCCCC1 | inconclusive: 2 µM [inhibitor, partial curve, poor fit] | –
30 | O=C(Cc1ccc2c(c1)CCCC2)Nc1ccc2ccccc2c1 | active: 7.08 µM | –
31 | COC(=O)c1c(NC(=O)C2(C)Cc3ccccc3C(=O)O2)sc2c1CCCC2 (configuration not stated) | active: 20 µM | –
32 | COc1ccc(C=O)cc1Cn1ccnc1 | – | inactive: -6.28% [at 102 µM]
33 | Cc1ccc(C(=O)Nc2ccc(S(=O)(=O)NCc3ccco3)cc2)cc1 | inconclusive: 15.8 µM [inhibitor, partial curve, poor fit] | –
34 | COc1ccccc1C(=O)Nc1ccnn1C1CCN(C/C=C/c2ccc(F)cc2)CC1 | – | inactive: 12% [at 102 µM]
35 | O=C(CN1N=C(c2ccccc2)CCC1=O)NCc1ccc(F)cc1Cl | – | inactive: 3.39%
36 | O=C(COc1ccccc1/C=C\c1nc(O)c([N+](=O)[O-])c(=O)[nH]1)Nc1ccccc1 | active: 50.1 µM | –
37 | CCN(CC)c1c([N+](=O)[O-])c(=O)n(C)c2ccccc12 | – | inactive: -41.2% [at 102 µM]
38 | CCOc1ccc(N=C2SC(C(=O)Nc3ccccc3C#N)C(N)=C2C(=O)Nc2ccc(Cl)cc2)cc1 (configuration not stated) | inconclusive: 1 µM [inhibitor, partial curve, poor fit] | –
39 | COc1cccc(-n2cc(C(=O)NCc3ccc(C)cc3)c3ccccc3c2=O)c1 | – | inactive: 12%
40 | CCCc1nc2ccccc2c(C(=O)OCC(=O)Nc2cccc(S(=O)(=O)N3CCOCC3)c2)c1CC | – | inconclusive: -59.5% [inhibitor] [at 12.7 µM]
41 | CCCOc1ccc(NC(=O)CC2C(=O)Nc3ccccc3N2CC(=O)N2CCCC2)cc1 (configuration not stated) | inconclusive: 12.6 µM [inhibitor, single point] | –
42 | Cc1cc(C)nc(SCc2nc3ccccc3n2C)n1 | – | inactive: -27.7% [at 102 µM]
43 | CC(=O)c1ccc(N2CCN(S(=O)(=O)c3c(C(=O)N4CCCC4)c(C)n(C)c3C)CC2)cc1 | inconclusive: 11.2 µM [inhibitor, partial curve, poor fit] | –
44 | CCN(CC)c1ccc(/C=N/NC(=O)c2c(Cl)cnn2C)c(O)c1 | – | inactive: -3.41%
45 | NC(=O)c1nn(-c2ccccc2)c(=O)cc1O | – | inactive: 32.4% [at 12.7 µM]
46 | COc1ccc(/C=N/S(=O)(=O)c2ccc(C)cc2)cc1 | inconclusive: 31.6 µM [inhibitor, partial curve, poor fit] | –
47 | COCCCn1c(CCC(=O)O)ccc1-c1cccs1 | inconclusive: 35.5 µM [inhibitor, single point] | –
